Drawing on the antibiotic and cytotoxicity screens of Wong et al. (2023), this text covers cytotoxicity call and growth inhibition call for 27 molecules.

The subject of one assay is HSkMC. The assay is described as follows: cytotoxicity call (relative viability < 0.9). The settings on record: 10 µM.
The next assay has as its system HepG2. The assay is described as follows: cytotoxicity call (relative viability < 0.9). The note with it: 10 µM.
A further assay relates to S. aureus RN4220. The experiment in a line: growth inhibition call (relative growth <= 0.2). The settings on record: 50 µM.

The list shows a part of the results.

Turning to `CCNC(=O)C[C@@H]1C=C[C@@H](NC(=O)C2CC2)[C@H](CO)O1`, the cytotoxicity call in the assay with HSkMC and in the assay on HepG2 was “inactive” in each case. The growth inhibition call in the assay with S. aureus RN4220 is “inactive”.
As to `C[C@H](CO)N1C[C@H](C)[C@H](CN(C)C(=O)c2ccccc2F)Oc2cc(C#CCN(C)C)ccc2S1(=O)=O`, the cytotoxicity call in the assay on HSkMC and in the assay on HepG2 was “inactive” throughout. Also, in the assay with S. aureus RN4220, the growth inhibition call is “inactive”.
With `COc1ccc(S(=O)(=O)N(C)C[C@H]2Oc3cc(Br)ccc3S(=O)(=O)N([C@H](C)CO)C[C@H]2C)cc1`, the cytotoxicity call in the assay with HSkMC and in the assay on HepG2 was “inactive” in each case. Moreover, the growth inhibition call in the assay on S. aureus RN4220 was “inactive”.
Turning to `NCc1cccc(COc2ccccc2)c1`, the cytotoxicity call in the assay on HSkMC and in the assay with HepG2 was “inactive” each time. Further, in the assay on S. aureus RN4220, the growth inhibition call was “inactive”.
For the molecule `Cc1noc(C)c1NC(=O)N(C)C[C@H]1Oc2c(NS(=O)(=O)c3ccccc3)cccc2C(=O)N([C@@H](C)CO)C[C@H]1C`, the cytotoxicity call in the assay with HSkMC and in the assay on HepG2 was “inactive” each time. Also, the growth inhibition call in the assay with S. aureus RN4220 is “inactive”.
In the case of `C[C@@H]1CN([C@@H](C)CO)C(=O)c2cc(-c3cncnc3)cnc2O[C@@H]1CN(C)C(=O)CN1CCOCC1`, the cytotoxicity call in the assay with HSkMC and in the assay with HepG2 was “inactive” throughout. Besides, the growth inhibition call with S. aureus RN4220 was “inactive”.
For `CO/N=C(\C(=O)N[C@@H]1C(=O)N2C(C(=O)O[C@@H](C)OC(C)=O)=C(COC(N)=O)CS[C@H]12)c1ccco1`, the cytotoxicity call in the assay on HSkMC and in the assay with HepG2 was “inactive” each time. In the assay on S. aureus RN4220, the growth inhibition call is “inactive”.
Turning to `CO[C@H]1CN(C)C(=O)c2cc(NC(=O)C3CC3)ccc2OC[C@@H](C)N(C(=O)C2CCOCC2)C[C@@H]1C`, the cytotoxicity call in the assay with HSkMC and in the assay with HepG2 was “inactive” in each case. The growth inhibition call with S. aureus RN4220 was “inactive”.
For the molecule `CC=Cc1ccc2n(c1=O)C[C@@H]1[C@@H](CO)[C@H](C(=O)NCC)[C@H]2N1S(=O)(=O)c1cn(C)cn1`, the cytotoxicity call in the assay on HSkMC and with HepG2 was “inactive” throughout. The growth inhibition call in the assay on S. aureus RN4220 is “inactive”.
On to `COc1ccc(CN(C)C[C@H]2OCCCC[C@H](C)Oc3ccc(NS(=O)(=O)c4cccs4)cc3C(=O)N([C@H](C)CO)C[C@@H]2C)cc1`, for which the cytotoxicity call in the assay on HSkMC and with HepG2 was “inactive” in each case. In the assay with S. aureus RN4220, the growth inhibition call is “inactive”.
As to `C[C@H]1CN([C@@H](C)CO)C(=O)Cc2cc(NC(=O)C3CC3)ccc2O[C@H]1CN(C)Cc1ccc2c(c1)OCO2`, the cytotoxicity call with HSkMC and in the assay on HepG2 was “inactive” each time. In addition, the growth inhibition call in the assay on S. aureus RN4220 is “inactive”.
In the case of `COc1ccc(S(=O)(=O)N[C@@H]2C=C[C@@H](CC(=O)N3CCN(c4ccccc4)CC3)O[C@@H]2CO)cc1`, the cytotoxicity call in the assay on HSkMC and in the assay on HepG2 was “inactive” throughout. In addition, in the assay on S. aureus RN4220, the growth inhibition call is “inactive”.
On to `CCN1CCN(C2CCN(Cc3cc(=O)n(C)c(=O)n3C)CC2)C1=O`, for which the cytotoxicity call with HSkMC and in the assay with HepG2 was “inactive” each time. In the assay with S. aureus RN4220, the growth inhibition call was “inactive”.
Turning to `CO[C@@H]1CN(C)C(=O)c2cc(NS(=O)(=O)CC(F)(F)F)ccc2OC[C@@H](C)N(Cc2cccnc2)C[C@@H]1C`, the cytotoxicity call in the assay with HSkMC and in the assay with HepG2 was “inactive” throughout. Further, the growth inhibition call with S. aureus RN4220 is “inactive”.
Regarding `COc1ccc(NC(=O)Nc2ccc3c(c2)CC(=O)N([C@H](C)CO)C[C@H](C)[C@H](CN(C)C(=O)Nc2ccc(C(F)(F)F)cc2)O3)cc1`, the cytotoxicity call in the assay with HSkMC and in the assay on HepG2 was “inactive” each time. Further, in the assay with S. aureus RN4220, the growth inhibition call is “inactive”.
Regarding `Cc1cc(C(=O)Nc2cccc3c2O[C@@H](CN(C)C(=O)NC2CCCCC2)[C@@H](C)CN([C@@H](C)CO)C3=O)n(C)n1`, the cytotoxicity call with HSkMC and in the assay on HepG2 was “inactive” in each case. The growth inhibition call with S. aureus RN4220 is “inactive”.
With `COc1ccc(CN(C)C[C@H]2Oc3c(NS(=O)(=O)c4cn(C)cn4)cccc3C(=O)N([C@@H](C)CO)C[C@@H]2C)cc1`, the cytotoxicity call with HSkMC and in the assay on HepG2 was “inactive” throughout. Moreover, the growth inhibition call with S. aureus RN4220 is “inactive”.
On to `C[C@@H]1CN([C@H](C)CO)C(=O)Cc2cc(NC(=O)Nc3ccc(C(F)(F)F)cc3)ccc2O[C@H]1CN(C)C(=O)Nc1ccc2c(c1)OCO2`, for which the cytotoxicity call in the assay with HSkMC and in the assay on HepG2 was “inactive” throughout. The growth inhibition call in the assay on S. aureus RN4220 was “inactive”.
Regarding `C[C@H]1CN([C@@H](C)CO)C(=O)c2cc(NC(=O)Nc3ccc(F)cc3)ccc2O[C@@H]1CN(C)C(=O)Nc1cccc2ccccc12`, the cytotoxicity call in the assay on HSkMC and in the assay on HepG2 was “inactive” in each case. The growth inhibition call with S. aureus RN4220 was “inactive”.
In the case of `Cc1noc(C)c1S(=O)(=O)N(C)C[C@@H]1Oc2ccc(NC(=O)C3CC3)cc2CC(=O)N([C@H](C)CO)C[C@@H]1C`, the cytotoxicity call in the assay with HSkMC and in the assay on HepG2 was “inactive” in each case. In addition, the growth inhibition call in the assay with S. aureus RN4220 is “inactive”.
On to `CN(C)CCN1CCN(C)C2(CCN(C(=O)c3ccn[nH]3)CC2)C1=O`, for which the cytotoxicity call with HSkMC and with HepG2 was “inactive” throughout. In addition, the growth inhibition call in the assay with S. aureus RN4220 was “inactive”.
`CS(=O)(=O)N1CCCn2c(nc(CNC(=O)CC3CC3)cc2=O)C1`: the cytotoxicity call with HSkMC and in the assay with HepG2 was “inactive” throughout. Moreover, the growth inhibition call in the assay on S. aureus RN4220 is “inactive”.
`COc1ccc(S(=O)(=O)N(C)C[C@@H]2Oc3ccc(NS(=O)(=O)c4ccccc4)cc3CC(=O)N([C@H](C)CO)C[C@H]2C)cc1`: the cytotoxicity call in the assay with HSkMC and in the assay with HepG2 was “inactive” throughout. In the assay with S. aureus RN4220, the growth inhibition call is “inactive”.
Take `Cc1ccc(S(=O)(=O)N(C)C[C@H]2Oc3cc(C#Cc4ccncc4)ccc3S(=O)(=O)N([C@H](C)CO)C[C@H]2C)cc1`: the cytotoxicity call with HSkMC was “inactive”. In addition, the cytotoxicity call in the assay with HepG2 is “active”. The growth inhibition call in the assay on S. aureus RN4220 is “inactive”.
Regarding `C[C@H](CO)N1C[C@H](C)[C@H](CN(C)C(=O)Cc2ccccc2)OCCCC[C@H](C)Oc2ccc(NS(=O)(=O)c3cccs3)cc2C1=O`, the cytotoxicity call in the assay on HSkMC and in the assay with HepG2 was “inactive” in each case. Further, the growth inhibition call in the assay with S. aureus RN4220 was “inactive”.
For `C[C@@H]1CN([C@@H](C)CO)C(=O)c2cc(-c3ccc(C(=O)N(C)C)cc3)cnc2O[C@H]1CN(C)C(=O)c1ccncc1`, the cytotoxicity call in the assay with HSkMC and with HepG2 was “inactive” throughout. In addition, the growth inhibition call in the assay with S. aureus RN4220 is “inactive”.
Take `C=CC1=C(C(=O)O)N2C(=O)[C@@H](NC(=O)/C(=N/O)c3csc(N)n3)[C@H]2SC1`: the cytotoxicity call in the assay on HSkMC (human skeletal muscle cells) and with HepG2 was “inactive” each time. The growth inhibition call in the assay with S. aureus RN4220 was “active”.
